Assay results taken from PubChem BioAssay (NCI).
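Test compounds were applied to cells in 96-well plates for 48 hours at 5 doses. GI50 marks 50% less growth.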 Some entries of the source have several records that differ or are many. The list is limited to them. An entry can have further records. For some of these results: Values that stand side by side are repeats across runs, samples, wells, individuals or studies. A tag in brackets gives the origin of a value. The letters are not those of the source and start again with each entry.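 Definition used: TGI = concentration required for complete inhibition of growth.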 For some of these results: Records of one sample usually come from different ranges of test concentrations, which the source does not state; some values may only mark the edge of a range.

Tests used:
Experiment in all cases: NCI tumour cell line growth inhibition, 48 h
[1] = tested on: HOP-92 NSCLC
[2] = tested on: SK-MEL-2 melanoma
[3] = tested on: COLO 205 colon
[4] = tested on: SF-295 CNS
[5] = tested on: OVCAR-8 ovarian
[6] = tested on: RXF 393 renal
[7] = tested on: U251 CNS
[8] = tested on: NCI-H522 lung
[9] = tested on: NCI-H226 lung
[10] = tested on: HT29 colon
[11] = tested on: SNB-19 CNS
[12] = tested on: CAKI-1 renal
[13] = tested on: HOP-62 NSCLC

SMILES: CC1(O)CC2C(CC1SCc1ccccc1)C2(C)C (stereo not drawn)
- GI50 [1]: 23.2 µM [sample A, 1 test] and 75.4 nM [sample B, 1 test]

SMILES: CC(=O)O[C@H]1C(=O)[C@@]2(C)C([C@H](OC(=O)c3ccccc3)[C@]3(O)C[C@H](OC(=O)[C@H](O)[C@@H](NC(=O)c4ccc(Cl)cc4)c4ccccc4)C(C)=C1C3(C)C)C1(OC(C)=O)CO[C@@H]1C[C@@H]2O (stereo partly drawn)
- TGI [2]: 115 nM and 16.7 µM
- TGI [3]: 211 nM and 15.9 nM
- TGI [4]: 4.84 µM and 85.9 µM
- TGI [5]: 920 nM and > 100 µM
- TGI [6]: 25 µM and 541 nM
- TGI [7]: 1.32 µM and > 100 µM
- TGI [8]: 413 nM and 15.9 nM

SMILES: CC(C)(C)c1cnc(CSc2cnc(NC(=O)C3CCNCC3)s2)o1
- TGI [9]: > 100 µM [sample A, 1 test] and 1.44 µM [sample B, mean of 2 tests]
- TGI [10]: 891 nM [sample A, mean of 2 tests] and > 10 µM [sample B, mean of 2 tests]

SMILES: Nc1nc2c(ncn2C2OC(CO)C(O)C2O)c(=O)[nH]1 (stereo not drawn)
- GI50 [11]: 9.44 µM [sample A, mean of 4 tests] and > 100 µM [sample B, 1 test]

SMILES: c1ccc2[nH]c(-c3cscn3)nc2c1
- GI50 [12]: > 100 µM [sample A, 1 test] and 6.76 µM [sample B, 1 test]
- GI50 [13]: > 100 µM [sample A, 1 test] and 575 nM [sample B, 1 test]
